Data published in PubChem BioAssay (NCATS).
The shares of active, inactive and inconclusive entries below differ from those in the screen. Potencies of inconclusive entries are doubtful fits and often do not repeat. Calls of active or inactive are those of the source. Calls follow the shape of the dose curve; as a rule, active = well fitted cell-killing curve with a large enough effect; inconclusive = small, poorly fitted or top-dose-only effect, or effect the other way; inactive = flat fitted curve, though single readings scatter.
Potency is read from the fitted curve at half-maximal effect; tags tell the direction and shape of the fitted curve.

Each compound was assayed on C33A (assay: Primary qHTS to identify gynecologic anti-cancer compounds using libraries of approved drugs and bioactive compounds (AID 1345084; also: nearly all actives have a fitted effect of over 55% in size)). Conditions: Gynecologic cancer cell panel viability, ATPlite luminescence, 48 h; series mostly up to 57.5 µM.
From the text: National Center for Advancing Translational Sciences [NCATS] Assay Overview: Chemotherapeutic drug responses vary from cancer to cancer and from patient to patient. These variations could be caused by a number of factors including patient genomic background, tumor mutations, tumor heterogeneity, and aspects of drug treatment. Chemotherapeutic drug resistance is also a common issue and can lead to ineffective treatment and patient death. Here we have profiled the cell killing effects of thousands of compounds to characterize the responses in three gynecological cancers, identify cancer-selective compounds, and understand the diversity of responses to these compounds from pan-cancer suppressors to single cell line selective compounds. In this assay, we screened a 7,914 compound drug library that included approved drug and bioactive compounds in six ovarian, three cervical, and […] placental cancer cell lines using the ATPlite assay for cell viability. […] The cervical cancer cell lines included HeLa, Ca Ski, and C-33 A. The placental cancer cell lines included JEG-3. HEK 293T cells were used as the control cell line to determine the selectivity index. ATPlite is a luminescence based assay reliant on the conversion of a luciferase substrate to light in the presence of ATP. As a cytotoxic compound will suppress growth and decrease the number of cells, the concentration of ATP will decrease, and less light signal will be detected in the well.
Assay Protocol Summary: 1,000 cells in 4 uL of media were dispensed into white, solid bottom 1536-well plates using a Multidrop Combi (Thermo Scientific). The Assay plates were incubated for 16 hours at 37 C with 5% CO2 in assay plates, followed by the addition of 23 nL of DMSO or drug dissolved in DMSO. Each compound was assayed in five concentrations (0.092, 0.46, 2.3, 11.5, and 57.5 uM), using the automated Wako 1536 Pin Tool workstation and incubated at 37 C with 5% CO2 48 hours. 4 uL of ATPlite, the ATP monitoring reagent, was then added to the each well of the assay plates using the Multidrop Combi reagent dispenser followed by incubation for 15 minutes at room temperature. The resulting luminescence was measured using the ViewLux plate reader.
`COc1ccccc1N1CCN(CC(O)COc2cccc3ccccc23)CC1` (stereo not given) was tested, and the Potency was active: 8.91 µM. For `N#C[C@H]1C[C@H]2C[C@@H]2N1C(=O)[C@@H](N)C12CC3CC(CC(O)(C3)C1)C2`, the Potency was inconclusive: 39.8 µM [cytotoxic, single point]. For `COCCOC(=O)C1=C(C)NC2=C(C(=O)CC(c3ccccc3OC)C2)C1c1cccc(O)c1` (stereo not given), the Potency was “inactive”. `C[C@@H]1CCO[C@H]2Cn3cc(C(=O)NCc4ccc(F)cc4F)c(=O)c(O)c3C(=O)N12` was tested, and the Potency was inconclusive: 25.1 µM [cytotoxic, partial curve, poor fit]. With `NCCS(=O)(=O)O` the Potency was “inactive”. In the case of `Clc1ccccc1C(c1ccccc1)(c1ccccc1)n1ccnc1`, the Potency is reported as inconclusive: 31.6 µM [cytotoxic, partial curve, poor fit]. `CS(=O)(=O)N1CCN(Cc2cc3nc(-c4cccc5[nH]ncc45)nc(N4CCOCC4)c3s2)CC1` was tested, and the Potency was inconclusive: 8.91 µM [cytotoxic, partial curve, poor fit]. In the case of `Cc1cc(=O)c2c(O)c3c(O)cc(=O)c4c3c3c(cc(O)c1c23)C(C)(C)C=4O`, the Potency is reported as active: 3.55 µM. For `CC(C)C[C@H](NC(=O)[C@H](CCc1ccccc1)NC(=O)CN1CCOCC1)C(=O)N[C@@H](Cc1ccccc1)C(=O)N[C@@H](CC(C)C)C(=O)[C@@]1(C)CO1`, the Potency was active: 0.316 µM. For `CCOC(=O)Nc1ccc(NCc2ccc(F)cc2)nc1N`, the Potency was inconclusive: 22.4 µM [rising, partial curve, poor fit]. `O=C1N(c2ccccc2)c2ccccc2C1(Cc1ccncc1)Cc1ccncc1` was tested, and the Potency was “inactive”. `OCCCNc1cc(-c2ccnc(Nc3cccc(Cl)c3)n2)ccn1` was tested, and the Potency was active: 0.562 µM. In the case of `CNCCCC12CCC(c3ccccc31)c1ccccc12`, the Potency is reported as inconclusive: 39.8 µM [cytotoxic, single point]. For `COc1cc(N2CCC(N3CCN(C)CC3)CC2)ccc1Nc1ncnc(Nc2ccccc2S(=O)(=O)C(C)C)n1`, the Potency was inconclusive: 15.8 µM [cytotoxic, partial curve, poor fit]. `CCc1nc(N)nc(N)c1-c1ccc(Cl)cc1` was tested, and the Potency was active: 5.01 µM. In the case of `CC(C)(C)NC(=O)Nc1cccc(Nc2ncc(F)c(NC(C)(C)CO)n2)c1`, the Potency is reported as “inactive”. For `Cc1ccn(-c2ccc(-c3ncco3)cc2)c(=O)c1-c1ccc2nc(N)ncc2c1`, the Potency was inconclusive: 28.2 µM [cytotoxic, partial curve, poor fit]. `NC(=O)c1cnc(-c2ccc(C3(N)CCC3)cc2)c(-c2ccccc2)c1` was tested, and the Potency was inconclusive: 20 µM [cytotoxic, partial curve, poor fit]. `CN(C)C(=N)N=C(N)N` was tested, and the Potency was “inactive”. `CC(C)n1nc(-c2ccc3oc(N)nc3c2)c2c(N)ncnc21` was tested, and the Potency was inconclusive: 0.447 µM [cytotoxic, full curve]. `CCCOc1ccc2nc(NC(=O)OC)[nH]c2c1` was tested, and the Potency was inconclusive: 1.12 µM [cytotoxic, full curve]. In the case of `CC(C)(C)c1nc(-c2cccc(NS(=O)(=O)c3c(F)cccc3F)c2F)c(-c2ccnc(N)n2)s1`, the Potency is reported as inconclusive: 25.1 µM [rising, partial curve, poor fit]. With `CN1CCN(Cc2ccc(NC(=O)Nc3ccc(Oc4cc(NC(=O)C5CC5)ncn4)cc3)cc2C(F)(F)F)CC1` the Potency was inconclusive: 0.282 µM [cytotoxic, full curve, poor fit]. With `CC(=O)OCC(CCn1cnc2cnc(N)nc21)COC(C)=O` the Potency was “inactive”. With `COC(=O)C1=C(C)NC(C)=C(C(=O)OCCCN2CCC(c3ccccc3)(c3ccccc3)CC2)C1c1cccc([N+](=O)[O-])c1` (stereo not given) the Potency was inconclusive: 17.8 µM [cytotoxic, partial curve, poor fit]. `Cc1cc(C2CCCCC2)n(O)c(=O)c1` was tested, and the Potency was active: 15.8 µM. In the case of `Cc1nc(Nc2n[nH]c3c2CN(C(=O)N[C@H](CN(C)C)c2ccccc2)C3(C)C)c2sccc2n1`, the Potency is reported as inconclusive: 10 µM [cytotoxic, full curve, poor fit]. `COc1cc(N2CCC(N3CCN(C)CC3)CC2)ccc1Nc1ncc(Cl)c(Nc2ccccc2S(=O)(=O)C(C)C)n1` was tested, and the Potency was inconclusive: 20 µM [cytotoxic, partial curve, poor fit]. `CNC(=O)c1ccc(-c2cnc3ncc(Cc4ccc5ncccc5c4)n3n2)cc1F` was tested, and the Potency was “inactive”. With `COC1=C(OC)C(=O)C(CCCCCCCCCCO)=C(C)C1=O` the Potency was inconclusive: 39.8 µM [cytotoxic, single point]. In the case of `CN(C)C1CCN(C(=O)c2ccc(NC(=O)Nc3nc(N4CCOCC4)nc(N4CCOCC4)n3)cc2)CC1`, the Potency is reported as active: 0.178 µM. With `CN(C)C(=O)C(CCN1CCC(O)(c2ccc(Cl)cc2)CC1)(c1ccccc1)c1ccccc1` the Potency was inconclusive: 39.8 µM [cytotoxic, single point]. In the case of `Cc1ncc([N+](=O)[O-])n1CCO`, the Potency is reported as “inactive”. In the case of `CCOc1ccc(Nc2nc(-c3c(C)nc4ccccn34)cs2)cc1`, the Potency is reported as active: 0.355 µM. `Cc1cccc(Nc2ccncc2S(=O)(=O)NC(=O)NC(C)C)c1` was tested, and the Potency was “inactive”. For `CN(C[C@@H]1COCCO1)S(=O)(=O)Nc1ccc2ccc3ncc(-c4cnn(C)c4)cc3c(=O)c2c1`, the Potency was inconclusive: 8.91 µM [cytotoxic, full curve, poor fit]. `CC[C@@]1(O)C(=O)OCc2c1cc1n(c2=O)Cc2cc3cc(O)ccc3nc2-1` was tested, and the Potency was active: 0.794 µM. With `O=C(Nc1cccnc1)N1CCC(Cc2cccc(Oc3ccc(C(F)(F)F)cn3)c2)CC1` the Potency was inconclusive: 8.91 µM [cytotoxic, partial curve]. `CN1CCN(CCOc2cc(OC3CCOCC3)c3c(Nc4c(Cl)ccc5c4OCO5)ncnc3c2)CC1` was tested, and the Potency was inconclusive: 0.355 µM [cytotoxic, full curve]. With `S=c1nc[nH]c2nc[nH]c12` the Potency was active: 10 µM.
